According to PubChem BioAssay AID256 (DTP/NCI, 2004):
“And” between values parts separate entries of the source, which are not always exact repeats. Equal entries are not always repeated. This continues a long series; more values of the same kind are listed elsewhere. Inconclusive results and toxic doses are left out. Rule for the calls: active = survival T/C of 150% or more; inactive = T/C below 125% in these data.

Tested on: CD2F1 mice, L1210 leukemia ip, survival T/C
Assay: NCI In Vivo Anticancer Drug Screen. Data for tumor model L1210 Leukemia (intraperitoneal) in CD2F1 (CDF1) mice
Details: higher = longer survival
Method: The antitumor activity of compounds was measured in mice bearing transplantable tumors. Survival or tumor size were measured and the results are expressed as the measurement made in the treated group (T) divided by the measurement made in the vehicle treated control group (C). The tumor model used in this assay is L1210 Leukemia (intraperitoneal) in CD2F1 (CDF1) mice

Measured: T/C

S=c1nc[nH]c2nc[nH]c12
inactive: endpoint: mean survival time, dose: 9.38 mg/kg/injection, schedule: Q01DX009 (ip), vehicle: alkali diluted with saline 107 % of control | endpoint: mean survival time, dose: 10.0 mg/kg/injection, schedule: Q01DX005 (ip), vehicle: alkali diluted with saline 112 % of control | endpoint: mean survival time, dose: 10.0 mg/kg/injection, schedule: Q01DX005 (ip), vehicle: alkali diluted with water 110 % of control | endpoint: mean survival time, dose: 20.0 mg/kg/injection, schedule: Q01DX005 (ip), vehicle: sodium bicarbonate 104 % of control and 106 % of control | endpoint: mean survival time, dose: 20.0 mg/kg/injection, schedule: Q01DX009 (ip), vehicle: alkali diluted with water 107 % of control | endpoint: mean survival time, dose: 20.0 mg/kg/injection, schedule: Q03DX003 (ip), vehicle: saline 106 % of control | endpoint: mean survival time, dose: 20.0 mg/kg/injection, schedule: Q04DX003 (ip), vehicle: saline 107 % of control | endpoint: mean survival time, dose: 30.0 mg/kg/injection, schedule: Q04DX003 (ip), vehicle: saline 102 % of control | endpoint: mean survival time, dose: 30.0 mg/kg/injection, schedule: Q## X002 (ip), vehicle: saline 103 % of control | endpoint: mean survival time, dose: 30.0 mg/kg/injection, schedule: Q## X009 (ip), vehicle: saline 107 % of control | endpoint: mean survival time, dose: 32.4 mg/kg/injection, schedule: Q04DX003 (ip), vehicle: alkali diluted with saline 110 % of control | endpoint: mean survival time, dose: 40.0 mg/kg/injection, schedule: Q01DX001 (ip), vehicle: alkali diluted with water 104 % of control and 106 % of control | endpoint: mean survival time, dose: 40.0 mg/kg/injection, schedule: Q01DX005 (ip), vehicle: sodium bicarbonate 107 % of control | endpoint: mean survival time, dose: 50.0 mg/kg/injection, schedule: Q04DX003 (ip), vehicle: alkali diluted with water 112 % of control | endpoint: mean survival time, dose: 54.0 mg/kg/injection, schedule: Q04DX003 (ip), vehicle: alkali diluted with saline 105 % of control | endpoint: mean survival time, dose: 56.25 mg/kg/injection, schedule: Q04DX003 (ip), vehicle: alkali diluted with saline 102 % of control | endpoint: mean survival time, dose: 60.0 mg/kg/injection, schedule: Q## X006 (ip), vehicle: saline 103 % of control | endpoint: mean survival time, dose: 90.0 mg/kg/injection, schedule: Q## X006 (ip), vehicle: saline 110 % of control | endpoint: mean survival time, dose: 112.5 mg/kg/injection, schedule: Q04DX003 (ip), vehicle: alkali diluted with saline 111 % of control | endpoint: mean survival time, dose: 160.0 mg/kg/injection, schedule: Q01DX005 (ip), vehicle: sodium bicarbonate 104 % of control | endpoint: median survival time, dose: 10.0 mg/kg/injection, schedule: Q01DX005 (ip), vehicle: alkali diluted with water 111 % of control | endpoint: median survival time, dose: 36.0 mg/kg/injection, schedule: Q01DX001 (ip), vehicle: alkali diluted with water 108 % of control | endpoint: median survival time, dose: 120.0 mg/kg/injection, schedule: Q01DX009 (ip), vehicle: water 108 % of control
